The supplement of paper PMC4166925
± gives the standard deviation of the averaged measurements. In all, about 33,000 sequences were measured (“E-score (dimensionless, -0.5 to 0.5)”: median about -0.049, highest 2% from about 0.37 on). Some of the results follow.

test system: T1, PmTbr T-box DNA-binding domain (GST fusion); experiment: PBM E-score of 8-mer (E-score (dimensionless, -0.5 to 0.5)); Tbr is Tbrain of the sea star Patiria miniata (Pm) or the sea urchin Strongylocentrotus purpuratus (Sp); higher = stronger binding preference; most listed sequences are background and not binding sites; conditions: the construct has about 5 more residues each side
T1 sequence: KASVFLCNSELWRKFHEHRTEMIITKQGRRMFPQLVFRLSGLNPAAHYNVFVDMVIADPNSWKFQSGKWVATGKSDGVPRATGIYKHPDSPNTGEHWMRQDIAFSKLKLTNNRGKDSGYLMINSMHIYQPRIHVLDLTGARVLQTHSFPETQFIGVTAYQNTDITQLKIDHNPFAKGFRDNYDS
Outline: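 GST-fused Tbr T-box DNA-binding domains (the whole T-box plus about five flanking residues) were expressed in BL21 E. coli at 20 °C and purified by glutathione affinity chromatography. Universal Agilent oligonucleotide arrays were made double-stranded by primer extension, incubated with 200 nM protein in PBS (pH 7.5), then scanned and quantified. Every ungapped 8-mer was scored from probe intensities. The Universal PBM Analysis Suite gave each word an enrichment E-score, averaged over duplicate arrays.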

Row | Sequence | PBM E-score of 8-mer
1 | CCACACAG | 0.09004 ± 5.7e-05
2 | ATACATAA | -0.089 ± 0.1
3 | GCCATATA | -0.092 ± 0.017
4 | GGTAAATA | -0.101 ± 0.062
5 | CTTAAGTA | -0.194 ± 0.0088
6 | CCAATTCA | 0.0108 ± 0.061
7 | AGTTACCA | 0.0049 ± 0.06
8 | AGCATGGC | -0.174 ± 0.051
9 | CATGTGCA | 0.0375 ± 0.051
10 | ACGGAGGG | -0.131 ± 0.059
11 | CCTGTACA | -0.159 ± 0.0084
12 | GACACACC | 0.287 ± 0.073
13 | TGAGCCAA | -0.152 ± 0.014
14 | CTATGCAC | -0.129 ± 0.042
15 | CAACTGGA | 0.0555 ± 0.022
16 | AAGAATTG | -0.0537 ± 0.066
17 | GATGCGCC | -0.252 ± 0.014
18 | TAGCCATA | -0.0238 ± 0.019
19 | ATGGGAGC | -0.16 ± 0.016
20 | ACGCTAGC | 0.0295 ± 0.047
21 | AGAATTAC | -0.192 ± 0.025
22 | CTCACACA | 0.41 ± 0.0079

Row | Sequence | PBM E-score of 8-mer
23 | GAATGTCA | 0.115 ± 0.029
24 | CCAGACCA | -0.0405 ± 0.051
25 | GCTAGAAA | 0.0693 ± 0.092
26 | TGACACAA | 0.311 ± 0.0088
27 | AATGTGTC | 0.425 ± 0.0071
28 | CCATCCCA | -0.133 ± 0.1
29 | CCCTTAGA | -0.238 ± 0.06
30 | CGTTCTCA | 0.146 ± 0.044
31 | GGTTCGAC | 0.0606 ± 0.091
32 | CAACCATC | 0.0104 ± 0.011
33 | ACTACGCA | 0.0912 ± 0.095
34 | CAGAGAGC | -0.34 ± 0.019
35 | AACGGGCC | -0.223 ± 0.072
36 | AGTGCATA | 0.00416 ± 0.059
37 | ATCTCCCC | -0.0143 ± 0.038
38 | ACAAATTA | 0.106 ± 0.067
39 | ATGGGTCA | -0.203 ± 0.038
40 | GATCAAGA | -0.0339 ± 0.033
41 | AACGCGGG | -0.147 ± 0.033
42 | AATGAAAC | -0.18 ± 0.034
43 | CACCGAGG | 0.0806 ± 0.037
44 | CATCAGCC | -0.112 ± 0.0073

Row | Sequence | PBM E-score of 8-mer
45 | AAACTCGG | -0.244 ± 0.014
46 | ACCTCCTG | 0.0176 ± 0.024
47 | ACCCTGGG | 0.0733 ± 0.0079
48 | CCAGCCAG | -0.114 ± 0.074
49 | AGATATTA | -0.0683 ± 0.087
50 | GCGATCCA | -0.0877 ± 0.058
51 | AGACGCCA | -0.0179 ± 0.091
52 | TACCTTCA | 0.0141 ± 0.08
53 | CCGCTTAA | -0.0734 ± 0.03
54 | ACCTGGGG | 0.0226 ± 0.0096
55 | CGACGCCC | 0.174 ± 0.018
56 | CATGATCA | -0.0563 ± 0.0083
57 | TAAGAGTA | -0.272 ± 0.044
58 | CTGCATTA | -0.0284 ± 0.033
59 | CCAGAGGC | 0.0947 ± 0.07
60 | GGACTGGA | -0.237 ± 0.065
61 | AGGCTATA | -0.207 ± 0.012
62 | AAGTGTCT | 0.329 ± 0.022
63 | ATTTACAG | -0.0158 ± 0.018
64 | AAAGAGTC | -0.22 ± 0.046
65 | GCACCGCA | 0.0271 ± 0.029
66 | ACAGATTC | 0.111 ± 0.045

Row | Sequence | PBM E-score of 8-mer
67 | TGTCGACA | 0.371 ± 0.0078
68 | AGGTGAAG | 0.219 ± 0.012
69 | GTACATAA | -0.0339 ± 0.035
70 | ACTGCAGC | 0.0672 ± 0.059
71 | ATCGGCAA | 0.115 ± 0.03
72 | ACCGCCAC | 0.197 ± 0.085
73 | AAGGAATT | -0.117 ± 0.052
74 | GCCGCCCC | -0.0497 ± 0.058
75 | CTGCTGCC | -0.113 ± 0.024
76 | GGTAGACA | 0.0476 ± 0.0034
77 | ATCTCTTA | -0.0802 ± 0.075
78 | ATGTGCAC | 0.015 ± 0.013
79 | AGAGTCCC | -0.292 ± 0.091
80 | AAGCAGCT | -0.151 ± 0.042
81 | ACGAACGG | -0.0879 ± 0.0054
82 | AATAGAGA | -0.0689 ± 0.078
83 | GCATAGAA | -0.0823 ± 0.034
84 | CAAGCGAG | 0.00257 ± 0.039
85 | CATCCCCA | -0.0561 ± 0.085
86 | CATTAATA | -0.193 ± 0.067
87 | GTGGAGTA | -0.131 ± 0.093
88 | ACGTCTCG | 0.108 ± 0.038

Row | Sequence | PBM E-score of 8-mer
89 | AACCGTGG | -0.0611 ± 0.048
90 | ACCCAGTA | -0.234 ± 0.012
91 | CCGCGCGC | 0.0453 ± 0.026
92 | AGCACGAG | 0.115 ± 0.0097
93 | GGTATCAA | 0.079 ± 0.11
94 | AGGGATCC | -0.209 ± 0.027
95 | ATGTCGCG | 0.289 ± 0.0094
96 | CGAGAACG | 0.271 ± 0.0043
97 | GCTGACCA | -0.224 ± 0.072
98 | GCGAGACC | 0.232 ± 0.056
99 | ACTTGTTC | -0.188 ± 0.0091
100 | AATGAATT | -0.121 ± 0.13
101 | GAAGAACC | -0.202 ± 0.056
102 | CCTCCCGC | -0.0958 ± 0.03
103 | ACAGGACC | -0.282 ± 0.042
104 | GTTGGGGA | -0.127 ± 0.1
105 | AGTGGGTA | -0.124 ± 0.028
106 | AGCATCCC | -0.136 ± 0.039
107 | CACATGGG | 0.113 ± 0.049
108 | AGACCGAT | -0.274 ± 0.099
109 | CACGCAGA | 0.125 ± 0.016
